This is one part of the list. At the low end of the ranking the order means little. Measured with an extract: partners may take part in the binding.
The sequences below were run against T1, HNF4alpha2 (COS-7 nuclear extract) (UniProt P41235) (assay: protein-binding microarray). Details: COS-7 nuclear extract on double-stranded Agilent 4x180k PBM; binding buffer, salt, pH and temperature not given; high values mean tight binding; double strand, one strand shown; sequences stand for … in …GCCTAGGGAGATTAGAGTATCGGTCGA.
T1 sequence: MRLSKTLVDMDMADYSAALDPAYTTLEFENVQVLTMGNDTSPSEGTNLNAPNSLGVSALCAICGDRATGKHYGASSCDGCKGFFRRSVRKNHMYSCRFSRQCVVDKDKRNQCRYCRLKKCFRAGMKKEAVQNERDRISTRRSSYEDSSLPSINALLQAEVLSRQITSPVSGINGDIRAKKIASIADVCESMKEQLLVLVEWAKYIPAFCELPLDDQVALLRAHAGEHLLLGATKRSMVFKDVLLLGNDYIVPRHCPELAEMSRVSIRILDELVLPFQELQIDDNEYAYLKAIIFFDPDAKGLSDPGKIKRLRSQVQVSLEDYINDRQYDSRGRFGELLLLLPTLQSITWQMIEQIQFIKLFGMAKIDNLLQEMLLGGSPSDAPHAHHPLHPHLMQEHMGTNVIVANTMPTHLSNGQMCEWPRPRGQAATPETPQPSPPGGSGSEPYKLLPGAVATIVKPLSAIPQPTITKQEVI

Sequence	binding signal (log2 normalized intensity)
TGTCTCCCTCTGCAGCAAAGTCCAGGCATA	1.13
CTGCAAACAGTGAGCCCAGTGGAGTAGGCT	-1.13
TATCGGTCACCATAAAACATTCTATTCTAT	-1.1
AGGCAGCAGCTCCAATTAGGAGATCAGCCC	-1.26
CATAAACTCCAACTCAGCCCCCAGCATTAT	5.03
AACAACGGCGGCCCAGTCAAACCCCGCGCT	-1.31
CCCATCCGCAGTGGGAGAGCAAGGGTCAAG	3.57
ACAAAGGGCAAAGTCCCCTTTCCTCATATT	4.8
TTGATTTAACATTTGTGATCTGGCACAAAT	0.545
CTGGCGTCCCCCACCTGGAATGTGCTCCCG	3.28
CGGTCACTACAACAACGGCGGCCCAGTCAA	-1.08
CTCCTGGTGTGCTGTTAGCTGAAGGACGTC	0.769
TCTTCAAGGAGGTGAACTTTGAGACTATCC	4.6
CCCTGGAGCACAGAAGGAGGGCGGGGAGTC	-1.12
TGTTTGCATTAGTTATATCTTACCTCCTTC	1.19
AGAGTCCAAATTCCTTGGTATGGCAAATAA	1.61
TTGGAAAAAGCAGGCAACCAAGGGTACACA	-1.05
GTCAGGGGCAGGTGGAGGTGGGATACTGGG	-1.13
TAGACAGCTTGAGAAACAGGGGCTTAAACC	-1.16
AAGAGCTGAGGAAGTGCTGACCTTTGGTCT	7.29
GGCGGCGGCCTCTGGGAAATGTAGTTCCGG	-0.274
CAGGCAGAGGGTTAACCCCTATTAACCAAA	0.385
GGTCAACACAATCTGATAGTTGATTGATTG	0.627
CATACTTCAGCAATTTCTTAGTAAACACTG	-0.745
GGGTGCAAACTCACCTGGAGAAGCAGAAGC	-1.26

Sequence	binding signal (log2 normalized intensity)
GTATATTCCCTTTGTATGGCAGGGGTTAAC	2.11
CCTGTCCAAAGGTCATCTGTCACTCTAGAT	5.47
AGGAGACAGGCTTTGAGCATCGCTGGACTC	2.07
ACGAGACGGTGTCCCTGGCCAATCCCAGGG	-1.21
AGCAAAGGTCATGCATAGAAGTATGTCTGG	1.65
GGCTATACAATTCCAGCAAGGATGGGGGCA	-0.832
TGGCGTATGCAGCAGGGCAGCAGCCTGACC	0.432
CTTTCTCTGTGTGTATGTGTGTGTACACAT	2.83
TCTTGCAAACATTACTGGCACACAGCAGAT	-1.18
AATCCCCTTCAAGTCTGAGATGAAGAGGCC	0.649
GAAATGGTGGACTTTGTAGCTCAAACAGTC	3.13
AACAACCCTTCGCTAGAGCAAATACAGCAC	-1.03
TCTGCCTAGGCATTTGGCTGTCTCAGTGGG	0.748
ATGGATTGGGGGCCATGTCTCAGCCCAAGA	-1.18
GGCAGGAAAGGGCCTCTCAGGTCAGGGAAG	-0.806
CTTCAGATAGCCTTTGCCTCCACCTTCTCT	-0.103
GTGTAACATTCATCTGAGACTAACTGCATT	-0.778
ACATGGGCGTCACCAACCAGCCCTCGAGTG	3.42
CATTTTTTCAAACACCTGGGTCTGACCTCT	4.19
AGGCTGGGGGCAGAGTTCACCCCATTTTGT	2.7
TTTGCATTCTTACCCAAGCCCCAAATCTAG	2.94
TTGTGATACACCTTGCCTGGCTACCTCTTA	-0.861
GAGAAGCCTAAGCAGGGCTAGACTTTAACC	3.92
GTGATCAAACAAAAGGGACAAAGGTGAGTG	1.99
CAAACAGCGCTTATCTGGAAACTATTCCTT	-0.917

Sequence	binding signal (log2 normalized intensity)
CTACAAGGACCAGATTCTTAAAGGGACCAC	-1.13
CTGGGGACCTTTATATGTCCACCTTATCTA	0.739
TCTTATCTGCCTAGGCATTTGGCTGTCTCA	-1.05
GGACTTTGGTGTCTGACAGATAAGATTTGG	2.31
GCACAGGTCCTACTCACACTCAAGGCAAGA	-1.17
TTGCACTCATACTTGAAGACATTCCAAGAA	-0.777
GTTCTCTGGGCTTTTTGATCTTGTCACATT	1.76
TCGGAAGACGCACCTCTGCATACTTCCTGT	-1.01
GAGGAGTGAGAACAGACAAAATTAAGTGAT	-0.875
GTGGTAGGACAGGGCCCTTCACTATTTTCA	-1.08
CATGAAGGTCTCCTTGACTTCAAAGGCATT	0.693
GCAGAGTCCCAAGCATCTCTGAGCAGTGAA	-1.16
CACTCCATTTACAGACCAATCCATTGACCT	3.2
CACAAGCTGTGTGGCATGGTGTTTTGCCTT	1.38
CTGGAAATGTTTGTAGGGACTTTGACCCCT	9.92
GCCAAACCAGGTCATGCATTCTGCTTACTA	-1.2
AGCCAGGCCAACACCAAGCAAGCTCTGCAA	-0.966
CTGGGGGCAAAGGTTCACTTTGGGGAAGTC	3.85
AGAAAGGGGTCAGCAAAAATAGCCAAAATA	-1.06
CCCCCAACAGGGCTCCTGTTCAGCATAGTC	2.42
TAGTGCAAGAATCCAAGAATTCGATTGTTT	-1.16
TCCGTCTATAAATACGCCTCGCCCGAGCTG	-1.19
TCAGCTGACATTGGTGGAATCTGAACTTTT	3
TCCGGGGTCACGCGCGTGTGGATACGATGA	1.76
ACAGGCCCTCTGATATTGGGTGAGTGTTAG	1.25

Sequence	binding signal (log2 normalized intensity)
ATGTTTTGTTATCTGTGCCACAGGTATTTC	1.43
AGCATAAGGTTTCCATCAAGCCTTTGACTC	-0.717
GGAGGGGTGCGAAGGTCGAGGCCAGGGATT	2.15
AGAGCGTCCCACCTGAGGCCAAGCAGCTGT	-1.17
GTGTTATCTCTGATGCCCTTTGGCCTTTCT	6.59
AAAGAGCAGCTAGCTCCAGTTGGTTGCTAA	-1.15
ACCGGGATTTTGTTGGGGAACTTTGCCCGG	4.45
TGGCCAATCCCAGGGTCAGAGGTCGCGAGG	3.96
CAAACAATCCTCCCACCTCAGCATCCCAAG	1.05
ATTAAAAGATAAAACATTGTACCTTCTACC	0.398
GTCAGTGTCCAGCACACCTTTTTTTCATGC	-0.28
GGCGTCACCAACCAGCCCTCGAGTGAGGGG	2.36
CCAGGTCTCCTCCACAGAGCACAGGATCCA	-1
TGGGTTCAAAGGTCAGAAAAAGCTGACGCC	6.84
CTGCACCATTCTTGTCCTTTCGGTGTGTGC	2.1
CCTCAGTCCATCCTGTCTCACCAGACCAAG	-1.18
ACTTTGGAACTCAGTTAATGTACAGAGTAT	0.375
CCTGTAGCTTCCGAAAGTATTTTTCTAGTC	0.969
ATCTCACTCTTTGTTATTTATTGGCCAGTA	1.9
ACTAGGCAGCTTGGGAGCAATTTAGCAGCA	-1.07
CTCCCTAGAAGAGTGAACCTAGTGGCTGTG	-0.774
GTGTGAATCTCCAACAAGGCAGGAGATTCC	-1.08
GCAGGAAGGAGCCTGCTTTGCTGAGGAACT	-1.17
GAGACACAAGGAAAAATGACCATCTCGTCA	-1.18
GGGGATTGTGTAACATCTAAGATTGGCCCT	1.3

Sequence	binding signal (log2 normalized intensity)
AGGTTGGCTAAAGATAACCTAGAAAGGAGA	-1.18
TCTGCATACCAGGTAAGTGACATGCTTGCT	-1.13
GGAAAGGCATACGTGCTTAATCCTGGTGCA	-0.117
GCCATGAGTTGGGGACAAAGTTCAAGGTCC	5.61
GGTCCAGAGTTCACTGCAGGCTGGGGGCAG	1.5
GTAGGGCAGAGGCCAGTTTGATCACAAGAC	-1.1
CACTCACAGGACTGCTGTGAGGATTGATTA	-1.06
CCTGAAAACTGGAGGCCGCGACAAGCGTCG	-1.15
GGCTGATAGGCAGAAGGGACTAGCCTTATC	-1.18
AGGAGGAGGTTCCTGGAACTCTGACCTTTG	5.97
TTCTCTGGCAAATATCAGCATGGTATGTGG	1.67
TAAACTTTTGATTGCTTAGGCTCTTGTTAT	-0.703
TGTGTTACGTCTGGTTTCTTATCTTTCTCA	1.47
CTTGAGGCTCCGATAAACCCAGGCAATGAC	-0.813
GGACTGGAAGGGAGAGATAAGAAAAACTGA	-1.2
CCGAGGTCTGATAAGCACCCTGCTCCAGCC	-1.21
GCTGTCACCTTTACCCCCACTCTCCGCTGG	3.67
TTTGTTTGTGTAAGTGTGGGTTTAAGTAAG	2.17
TGAGGGTTAAAGGAGATAATGGGTGTAAGA	1.19
GCATCTGAGCAGATGTAAACATCATTCACG	-1.17
CTGCTTTCAGAGATGATAAGCCCTGAGTAG	-1.15
ACCCTGTGATGACCCCATACTTCAGCAATT	2
GCAGGGTCATAGCTTTATCTCTCCCCCACC	4.18
CGGCTGTCAAATCACTGAAGCGACCCCTCG	2.78
GCCGGGAGCAGGGAGCGAGACGCTGAGCTT	-1.23

Sequence	binding signal (log2 normalized intensity)
GATATGCGGCTGCAAATTCTGCATTTTTCT	-1.06
GTTATCTATTTGCATTCCATCAGTAGTATT	1.63
TTCCTCTGGCATCTGGTCAGGGGTCAAGAA	3.81
TGTAAACCTAGGTAGTGGACTCTAAGGCAA	1.14
TCCCCCTGCTGGACACCGAGGTCCTGGGGC	2.68
GGACTCTGGAACCATCAGGATTCCAGAGGA	1.86
CTGCATTCCAGCCTGGGGCAATAGAGTAAG	-0.717
TTATTGAGCACTTTTGGTATGCAAGGCATG	1.41
AGAACAGAATCCAGTCTGGTTAGTTTAAGC	-0.975
CTCCTTGGAAGTCGCCGTGAGGTTATTTGC	0.962
TCAGAAGGAAAGTCTCCCTCCCTTTGATCC	1.88
TGATCAAGAGGCTCTTCAATGCATTCCTGA	-1.09
GACAGGATATTTTGAGGGCTCAAAGGTTAC	5.37
TCCGAAATAAACTGAGGGGTGGGGACCAGT	-0.988
TTCTTTAAGCTATGTGGTGGAATGGAAAGA	1.04
CTGATCCCAGCCCCACGGCTGAGCGGCCTT	0.219
AGGCGCTGTGAAGCACATCCTGTTCTAGCT	-1.17
TGGTAGTTGCTGAAGGGCAGGGTTGGCTGT	1.06
ACTCATTTCACATTGGTGCCCTTTGCCTTT	3.97
TGGTTAGGTATTTTAAGTCACCAGATGAGA	0.217

Reference: article PMC10726135
